Measurements: the supplement of paper PMC3334620
The full ranking holds about 33,000 sequences; the median of “E-score (-0.5 to 0.5)” is about -0.053, and the highest 2% start at about 0.37. The list shows a part of the results.

biological target: Hap1 (UniProt P0CE41); test: PBM E-score (8-mer binding enrichment) (E-score (-0.5 to 0.5)); higher = stronger / more preferred TF binding; most listed sequences are background and not binding sites; conditions: protein concentration: 200 nM; construct: GST-DNA-binding domain
Method in brief: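 Full-length yeast transcription factors or their DNA-binding domains, GST-tagged and expressed with PURExpress, were applied at about 100-200 nM to universal all-10-mer Agilent arrays. These arrays had been made double-stranded by primer extension on fresh or once-stripped slides. Detection used fluorescent anti-GST, normalisation used masliner, and E-scores for ungapped eight-base words pooled with reverse complements came from the Universal PBM Analysis Suite.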

UniProt P0CE41, sequence (P0CE41 whole entry, the tested form may be a part): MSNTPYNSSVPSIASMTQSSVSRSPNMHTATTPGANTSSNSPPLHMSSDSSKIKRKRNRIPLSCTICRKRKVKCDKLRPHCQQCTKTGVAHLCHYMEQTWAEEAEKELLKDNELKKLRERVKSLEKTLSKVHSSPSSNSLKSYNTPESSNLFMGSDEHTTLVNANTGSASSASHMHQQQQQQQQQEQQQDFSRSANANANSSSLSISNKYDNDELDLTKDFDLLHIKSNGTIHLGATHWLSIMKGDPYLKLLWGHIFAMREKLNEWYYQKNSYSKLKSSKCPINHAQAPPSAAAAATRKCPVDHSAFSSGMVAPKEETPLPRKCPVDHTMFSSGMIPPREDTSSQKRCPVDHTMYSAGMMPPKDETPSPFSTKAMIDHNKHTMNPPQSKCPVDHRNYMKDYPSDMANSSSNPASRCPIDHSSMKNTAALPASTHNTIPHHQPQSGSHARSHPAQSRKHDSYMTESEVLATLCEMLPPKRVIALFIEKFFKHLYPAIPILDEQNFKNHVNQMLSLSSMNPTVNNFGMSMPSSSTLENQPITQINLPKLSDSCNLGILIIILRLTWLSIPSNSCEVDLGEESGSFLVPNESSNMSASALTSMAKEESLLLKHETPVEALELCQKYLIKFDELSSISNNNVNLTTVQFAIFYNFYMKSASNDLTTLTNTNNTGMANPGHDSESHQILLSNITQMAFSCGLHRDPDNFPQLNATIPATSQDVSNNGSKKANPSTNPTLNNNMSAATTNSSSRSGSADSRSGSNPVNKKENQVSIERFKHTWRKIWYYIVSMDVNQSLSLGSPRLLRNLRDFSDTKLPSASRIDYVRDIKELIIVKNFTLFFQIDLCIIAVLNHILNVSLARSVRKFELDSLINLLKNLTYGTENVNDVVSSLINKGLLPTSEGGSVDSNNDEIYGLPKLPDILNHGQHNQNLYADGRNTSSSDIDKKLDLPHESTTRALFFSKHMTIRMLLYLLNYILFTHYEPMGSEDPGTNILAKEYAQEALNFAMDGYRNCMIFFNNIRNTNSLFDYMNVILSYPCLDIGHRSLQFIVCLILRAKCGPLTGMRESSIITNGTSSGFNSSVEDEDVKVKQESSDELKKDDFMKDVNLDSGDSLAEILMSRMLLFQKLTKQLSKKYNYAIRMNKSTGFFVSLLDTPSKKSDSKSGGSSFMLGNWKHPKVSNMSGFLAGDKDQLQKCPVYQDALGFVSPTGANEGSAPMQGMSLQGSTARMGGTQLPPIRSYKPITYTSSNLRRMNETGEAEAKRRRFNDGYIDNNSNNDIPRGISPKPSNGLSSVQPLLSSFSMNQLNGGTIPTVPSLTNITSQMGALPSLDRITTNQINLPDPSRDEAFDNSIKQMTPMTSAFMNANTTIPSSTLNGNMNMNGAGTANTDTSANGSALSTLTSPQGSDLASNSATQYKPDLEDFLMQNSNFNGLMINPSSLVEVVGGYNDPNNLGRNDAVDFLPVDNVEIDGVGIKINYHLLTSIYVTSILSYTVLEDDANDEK

| Sequence | PBM E-score |
| --- | --- |
| GGGCTCCA | -0.165 |
| CATATTCC | 0.0564 |
| CAGGTACA | -0.164 |
| ACCTGCCC | -0.0981 |
| AATGCCAA | -0.159 |
| AACGGTCC | 0.244 |
| AAACAAGC | 0.0857 |
| AGCACCTG | -0.232 |
| GCTATACC | 0.106 |
| CGCTCACC | -0.0406 |
| GGCCCGAC | 0.275 |
| AACTCTTA | -0.0718 |
| GACATCGA | 0.00885 |
| ATCGAGGA | -0.118 |
| CGCACCGC | 0.0938 |
| ATGTATTA | -0.0837 |
| TACTCGCA | -0.0609 |
| AAGCTACC | -0.0294 |
| ACACTCAA | -0.126 |
| GTTACGGA | 0.239 |
| AAGGTGCG | 0.0297 |
| CCGGGACA | 0.299 |
| GCTGTACC | -0.0479 |
| AGGATTAG | -0.165 |
| ACTCTCTG | -0.271 |

| Sequence | PBM E-score |
| --- | --- |
| ATTTGTTC | 0.058 |
| CGCACGCC | -0.0211 |
| GGTCGTAA | 0.131 |
| GAGTGTCC | 0.06 |
| AATAACCT | -0.222 |
| ACATTCAA | -0.0646 |
| AGGCATAC | -0.226 |
| AGCTTACC | 0.0107 |
| CCATCATA | -0.0751 |
| GAGGTGAC | -0.0273 |
| ACGTCACG | -0.0369 |
| CGGAATGC | 0.281 |
| AATGGCCC | -0.0435 |
| GAGACAAC | 0.0536 |
| AAAGCAGT | -0.164 |
| ACTCAGAA | 0.00152 |
| AGGTTAAT | -0.0871 |
| AACGAGGG | -0.249 |
| CTTATCTC | 0.196 |
| CAGACCTG | -0.165 |
| GAAGGCTA | -0.148 |
| CTATGAAC | -0.192 |
| GCTGAAAA | 0.0469 |
| AACACCAC | -0.109 |
| AGTAGTCA | -0.282 |

| Sequence | PBM E-score |
| --- | --- |
| CGGATCCA | 0.318 |
| AGAGGACT | -0.304 |
| AGGTTTAC | -0.146 |
| ATCCGATA | 0.453 |
| GGGTATCA | -0.0318 |
| CACGACAA | -0.156 |
| CTCCCCTC | 0.0651 |
| AAGTACAA | -0.137 |
| CTGAGAAA | -0.254 |
| CTCTTTTC | -0.0717 |
| GACGTGTA | -0.135 |
| AACACGAA | 0.116 |
| CTCCCGGA | 0.376 |
| AAGATGCG | 0.0191 |
| TCGATCCA | -0.0724 |
| ATGCGCGA | 0.188 |
| ACTGGAGA | -0.0459 |
| ATCACAAG | -0.208 |
| ATCAGCAA | -0.0616 |
| AAAGACCC | 0.0101 |
| ATGCTTGA | -0.0593 |
| TGACATCA | -0.076 |
| ACACGTTC | -0.103 |
| ACCATCGA | -0.25 |
| GTCAGCAA | -0.157 |

| Sequence | PBM E-score |
| --- | --- |
| AGCCATTA | 0.0356 |
| AAGAAACC | 0.11 |
| TAATTAGA | 0.0224 |
| AATGCCGG | 0.384 |
| CATAGGCC | 0.0871 |
| CTACATAA | -0.151 |
| GTTGCAAC | -0.0181 |
| TATAACCA | -0.0424 |
| CTAAAGTC | -0.127 |
| CCTGGAGC | -0.197 |
| ACTATTAC | -0.00957 |
| ACGGCCGG | 0.392 |
| AATCTTGC | -0.0682 |
| TAAGCGAA | -0.0435 |
| ACATTTGA | 0.0244 |
| GGCTCAAA | 0.134 |
| CCAACCTC | 0.0408 |
| ACTCGCCC | 0.173 |
| AAGAGCTA | -0.0798 |
| CTTGGCGA | -0.147 |
| AGACCAAC | -0.198 |
| CAAGGATG | -0.287 |
| GCGATCAC | 0.0413 |
| AAAAATAT | -0.00656 |
| ATTGATTG | 0.122 |

| Sequence | PBM E-score |
| --- | --- |
| GCTTTAAC | -0.039 |
| ATAAATTG | 0.03 |
| CCATTCCC | 0.0749 |
| CGTGAACG | -0.133 |
| CTAGGATA | -0.0845 |
| ACGCTATG | -0.122 |
| AAAACGTA | -0.274 |
| CGTTCACC | 0.0701 |
| GACTTTGC | 0.0365 |
| AGTATCTC | 0.109 |
| AAAACATA | -0.0586 |
| GACGGATC | 0.132 |
| AATACGTG | -0.187 |
| GCCAGCTA | -0.211 |
| CGGGTGAA | 0.317 |
| GGCCGGAC | 0.398 |
| CCCGCGCG | 0.3 |
| GAGAGAAA | -0.0792 |
| GGACCCAA | 0.124 |
| GCTATTCA | -0.0571 |
| TAACCGTA | -0.0318 |
| ATCCAGGG | -0.113 |
| AGTCCGGG | 0.393 |
| CTGCCTAC | -0.186 |
| CGTCGCCA | -0.204 |

| Sequence | PBM E-score |
| --- | --- |
| AATCCAGA | -0.011 |
| ATGCGGCG | 0.133 |
| GTCCTGAA | -0.205 |
| AACTCGTG | -0.0683 |
| AAACTGTT | 0.0537 |
| AACATTCT | -0.0982 |
| CTGGACAC | -0.0719 |
| CAGAAGAA | -0.196 |
| TCGGACGA | 0.414 |
| ACTAAAAT | -0.129 |
| AGCAACTG | -0.112 |
| CTATTCCA | -0.0505 |
| AGGATCAT | -0.168 |
| AATCGCCC | 0.0407 |
| GCGGGGTA | 0.123 |
| AGCCCGGG | 0.36 |
| GCAATCAA | -0.199 |
| CCGCGACA | 0.105 |
| ATTACCCC | 0.16 |
| GGTGAGGA | -0.00088 |
| TACAATGA | -0.239 |
| CTAAATAA | -0.13 |
| CGGTCATA | 0.411 |
| AAGCACGT | -0.129 |
| TAGCAAGA | -0.249 |

| Sequence | PBM E-score |
| --- | --- |
| ATTTGGAC | -0.185 |
| GCTACTAC | 0.0744 |
| CATAGAGA | -0.215 |
| CCGGACAG | 0.382 |
| ACCACCGC | 0.14 |
| CAATTACA | -0.0776 |
| AATGGCAA | -0.168 |
| AGACGCTA | -0.169 |
| CCCGCCTC | -0.00272 |
| CCCGGAAG | 0.358 |
| GGTAGGAC | 0.0611 |
| AGGTCACG | -0.124 |
| ATATTAGC | -0.0105 |
| ATAGCGGC | 0.221 |
| CCTAGCAC | -0.131 |
| AATGACAC | -0.184 |
| CTCGACGC | -0.00713 |
| TAAGATTA | -0.0279 |
| CCAGATGG | -0.21 |
| CCATCTAC | -0.0218 |
| CTGTACAC | -0.128 |
| ACGTTCAC | -0.13 |
| ACTATAGC | -0.074 |
| CGGAAATC | 0.352 |
| AGAACTAC | -0.128 |

| Sequence | PBM E-score |
| --- | --- |
| CACCGCTG | -0.0442 |
| GAAGCCAA | -0.145 |
| CGCAAAGA | 0.0599 |
| ATTAATGC | 0.00917 |
| GAATGCAC | -0.00315 |
| ACCCGCTC | -0.0386 |
| ATGGATCG | 0.247 |
| GCTGCTCA | -0.241 |
| CACAAGAG | -0.0458 |
| ATAGGGAA | 0.036 |
| GGCACTCA | -0.285 |
| ATGGCTCG | -0.072 |
| CAGCATGC | -0.178 |
| CGACAAGA | 0.0988 |
| CTCACTCA | -0.213 |
| TGCGCGCA | 0.178 |
| ATCCTTCC | -0.104 |
| AAGCGCGT | 0.086 |
| AAGAGTAG | -0.00909 |
| ACATTCGC | 0.0143 |
| ACCAACGT | -0.225 |
| CGTGAAGC | -0.131 |
| TGAGGAAA | -0.0575 |
| AAGTGGGT | 0.0756 |
| AAGGACGC | -0.0558 |

| Sequence | PBM E-score |
| --- | --- |
| ATGAAAAA | -0.063 |
| AGTTTCAG | -0.0274 |
| ACCGGTCT | 0.179 |
| ACGGCTAC | 0.105 |
| CCGGACCC | 0.374 |
| CAGTTAAG | -0.0756 |
| CTGTGAAC | -0.134 |
| CTTTAGCC | 0.0453 |
| GGCCCCTA | -0.0472 |
| CATCGTGA | -0.167 |
| ATAGTGGA | 0.0468 |
| CGTTCGTC | -0.0333 |
| GACAACGA | 0.0366 |
| ATCAATAC | -0.131 |
| GAGATGCC | -0.055 |
| CCCTTATC | 0.199 |
| TAGGTCGA | -0.104 |
| GTAGGCTA | -0.15 |
| ATACAACA | -0.182 |
